About 5,800 (2.1%) of roughly 270,000 compounds were called active. The inconclusive results got no clear call from the source; some entries with a clear call stand among them for comparison. The call rests on the fitted dose curve; in most records, active means well fitted inhibition curve with a large enough effect; inconclusive means small, poorly fitted or top-dose-only effect; inactive means flat fitted curve, though single readings scatter. A potency beside an inconclusive call is a rough fit, not a confirmed value.
Each compound was assayed against Microtubule-associated protein tau (Homo sapiens) (UniProt P10636) (assay: qHTS for Inhibitors of Tau Fibril Formation, Thioflavin T Binding). Settings: recombinant tau K18 P301L (four-repeat tau fragment), heparin-induced fibrillization, ThT fluorescence; series mostly up to 57.4 µM; activity, negative = inhibition: at the top concentration.
Chain of UniProt P10636 (P10636 whole entry, looked up, the tested form may be a part): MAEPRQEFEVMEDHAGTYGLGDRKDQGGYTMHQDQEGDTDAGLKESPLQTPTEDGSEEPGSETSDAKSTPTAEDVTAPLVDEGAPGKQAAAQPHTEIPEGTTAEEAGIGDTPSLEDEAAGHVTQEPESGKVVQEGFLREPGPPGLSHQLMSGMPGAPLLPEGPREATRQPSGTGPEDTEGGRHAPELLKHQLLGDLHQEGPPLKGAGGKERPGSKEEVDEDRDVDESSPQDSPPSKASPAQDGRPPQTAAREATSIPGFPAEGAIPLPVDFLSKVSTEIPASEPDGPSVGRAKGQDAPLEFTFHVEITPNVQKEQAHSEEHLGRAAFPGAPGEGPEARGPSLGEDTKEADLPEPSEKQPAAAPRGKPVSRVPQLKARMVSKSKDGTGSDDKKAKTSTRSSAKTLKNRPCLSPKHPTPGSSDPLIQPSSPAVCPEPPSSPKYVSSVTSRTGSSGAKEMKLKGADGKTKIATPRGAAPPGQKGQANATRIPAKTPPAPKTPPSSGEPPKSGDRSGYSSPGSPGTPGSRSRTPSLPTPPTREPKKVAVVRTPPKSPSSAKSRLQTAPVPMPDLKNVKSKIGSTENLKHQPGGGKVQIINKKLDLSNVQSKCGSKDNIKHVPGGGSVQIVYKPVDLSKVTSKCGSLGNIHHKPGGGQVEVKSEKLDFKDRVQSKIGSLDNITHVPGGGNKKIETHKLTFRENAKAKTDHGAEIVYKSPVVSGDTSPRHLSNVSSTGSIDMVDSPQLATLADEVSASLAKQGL
How it was run: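 Tau K18 P301L fragment (15 uM unlabeled plus 0.24 uM Alexa 594-labeled) in 100 mM sodium acetate pH 7 with compound, fibrillization induced by 20 uM heparin for 6 hr at 37 C. Thioflavin T (30 uM) added, fluorescence read after 1 hr (ex 450, em 510 nm).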
Further: nearly all actives have a fitted effect of over 55% in size.
On the % scale 0 is the no-effect control and ±100 the full control effect; potency means the concentration at half of the fitted maximal effect; tags describe the fitted curve by direction and shape.

| Compound | Potency | activity, negative = inhibition |
| --- | --- | --- |
| CCCC(=O)Nc1nc(C)c(-c2csc(Nc3ccccc3C)n2)s1 | inconclusive: 28.2 µM [inhibitor, single point] |  |
| Cc1ccccc1NC(=O)CSc1nc(-c2ccccc2C)nc2cc(=O)[nH]n12 | inconclusive: 39.8 µM [inhibitor, single point] |  |
| COc1ccc(/C(C)=N/Nc2cccc(C(=O)O)c2)cc1OC | inconclusive: 5.01 µM [inhibitor, partial curve] |  |
| CCOC(=O)c1cc2c(C)[nH]c(C)c2cc(C(=O)OCC)c1=O | inconclusive: 11.2 µM [inhibitor, partial curve] |  |
| CCNc1ccccc(-c2ccc3ccccc3n2)c1=O | inconclusive: 12.6 µM [inhibitor, partial curve] |  |
| CCOc1cc(NC(=S)Nc2cccc(OC)c2)c(OCC)cc1NC(=O)C1CC1 | inconclusive: 12.6 µM [inhibitor, partial curve] |  |
| Clc1ccc(-c2nc3ncccn3c2Nc2ccc3c(c2)OCO3)cc1 | inconclusive: 39.8 µM [inhibitor, single point] |  |
| Cc1cc2c(c(SCC(N)=O)n1)C(=O)OC2 |  | inactive: -2.13% |
| COc1ccc(C(=O)CN2CCN(S(=O)(=O)c3cccc([N+](=O)[O-])c3)CC2)cc1OC | inconclusive: 17.8 µM [inhibitor, single point] |  |
| CCOC(=O)CNC(=O)C1CCCN(c2ncccn2)C1 (stereo not drawn) |  | inactive: 2.82% |
| CC[C@H]1C(c2cccc(Cl)c2)=NN(c2ccccc2)[C@@H]1CO | inconclusive: 25.1 µM [inhibitor, partial curve] |  |
| CC1CN(C2=NC(=O)/C(=C/c3ccncc3)S2)CC(C)O1 (stereo not drawn) |  | inactive: -1.62% |
| CC(=O)c1sc2nsc(SCCN3CCOCC3)c2c1N | inconclusive: 25.1 µM [inhibitor, partial curve] |  |
| COc1ccc2c(c1)CC/C(=C/c1cc(OC)c(OC)c(OC)c1)C2=O | inconclusive: 22.4 µM [inhibitor, partial curve] |  |
| O=C(COc1ccc2oc3c(c2c1)CCCC3)Nc1ccc(Br)cc1 | inconclusive: 0.891 µM [inhibitor, full curve, poor fit] |  |
| CCOC(=O)c1c(C)oc2ncnc(N3CCN(c4ccccc4OC)CC3)c12 |  | inactive: -14% |
| c1ccc(C2=NNC(=NCc3ccc4c(c3)OCO4)SC2)cc1 | inconclusive: 31.6 µM [inhibitor, single point] |  |
| Cc1cc(C=O)c(C)n1-c1ccc(NC2CCCC2)c([N+](=O)[O-])c1 | inconclusive: 7.94 µM [inhibitor, partial curve] |  |
| COc1ccc(CCn2c(=S)[nH]c3ccc(N4CCOCC4)cc3c2=O)cc1OC |  | inactive: -18.3% |
| COc1ccc(/C=C/C(=O)NCC2COc3ccccc3O2)cc1OC (stereo not drawn) | inconclusive: 11.2 µM [inhibitor, partial curve] |  |
| O=C(Nc1ccc2c(c1)OCO2)c1cc2nc(C3CC3)cc(C(F)(F)F)n2n1 | inconclusive: 17.8 µM [inhibitor, partial curve] |  |
| Fc1ccccc1N=C1NN=C(c2ccccc2)CS1 | active: 22.4 µM |  |

| Compound | Potency | activity, negative = inhibition |
| --- | --- | --- |
| COc1cccc(CNC(=O)CCc2cn(Cc3ccccc3Cl)c3ccccc23)c1 |  | inactive: -4.63% |
| Cc1ccc(Cl)cc1NC(=O)C(C)n1nnc2sc(-c3ccccc3)cc2c1=O (stereo not drawn) | active: 17.8 µM |  |
| COC(=O)c1cccc(-n2c(CCC(=O)O)ccc2-c2ccc(OC)cc2)c1 | inconclusive: 35.5 µM [inhibitor, partial curve, poor fit] |  |
| COc1ccc(/C(C#N)=C/c2c(-c3ccc(Cl)cc3)nc3c(C)cccn23)cc1 |  | inactive: -2.75% |
| CCOC(=O)C1CCN(C(=O)C(C)N(c2ccc(Oc3ccccc3)cc2)S(C)(=O)=O)CC1 (stereo not drawn) | inconclusive: 39.8 µM [inhibitor, single point] |  |
| Cc1cc(C)c(NC(=O)C(C)n2nc(-c3ccc(C)c(C)c3)ccc2=O)c(C)c1 (stereo not drawn) | inconclusive: 22.4 µM [inhibitor, partial curve] |  |
| C=CCCC(=O)Nc1nc(C)c(-c2csc(Nc3ccccc3OC)n2)s1 | active: 7.08 µM |  |
| CCOC(=O)C1CCCN(C(=O)c2cc(Nc3ccc(OC)cc3)nc3ccccc23)C1 (stereo not drawn) | inconclusive: 17.8 µM [inhibitor, partial curve, poor fit] |  |
| Cn1c(Cn2nnc3ccccc32)nnc1SCC(=O)N1c2ccccc2Sc2ccccc21 |  | inactive: -4.86% |
| Cc1nn(-c2ccccc2)c(OC(=O)C(C)C)c1Sc1ccccc1 | inconclusive: 17.8 µM [inhibitor, partial curve] |  |
| O=C(O)c1ccc(NC(=O)c2cn(-c3ccccc3)nc2-c2ccc(Cl)cc2)cc1 | inconclusive: 44.7 µM [activator, single point] |  |
| O=C(Nc1cccnc1)c1cc(-c2cccnc2)nc2ccc(Br)cc12 | inconclusive: 17.8 µM [inhibitor, partial curve, poor fit] |  |
| Cc1ccc(OC(=O)c2cc(=O)c3ccccc3o2)cc1 | inconclusive: 39.8 µM [inhibitor, single point] |  |
| CCC(=O)Oc1ccc2c(=O)c(-c3ccc4ccccc4n3)c(CC)oc2c1C | inconclusive: 7.08 µM [inhibitor, partial curve] |  |
| COc1ccc(-c2cc(C(F)(F)F)n3nc(C(=O)Nc4cc(Cl)cc(Cl)c4)cc3n2)cc1 |  | inactive: -17.4% |
| COc1cc(-c2ccno2)ccc1S(=O)(=O)N1CCN(c2ccc(C(C)=O)cc2)CC1 | inconclusive: 20 µM [inhibitor, single point] |  |
| Cc1ccc(S(=O)(=O)N2CCN(C(=O)CSc3ncc(C(F)(F)F)cc3Cl)CC2)cc1 | inconclusive: 39.8 µM [inhibitor, partial curve] |  |
| Cc1ccc(C2=N/C(=C\N3CCCCC3)C(=O)O2)cc1 |  | inactive: -14.6% |
| O=C(CCN1CCOCC1)c1ccc(Br)cc1 | inconclusive: 8.91 µM [inhibitor, partial curve, poor fit] |  |
| CCOc1ccc(OC(=O)c2cn(-c3ccc(C)cc3)c(=O)c3ccccc23)cc1 |  | inactive: -11.9% |
| COC(=O)c1c(C)[nH]c(C(=O)/C=C/c2ccccc2F)c1C | inconclusive: 2.51 µM [inhibitor, partial curve] |  |

— PubChem BioAssay AID1460 (National Center for Advancing Translational Sciences (NCATS), 2008)
